Measured values: PubChem BioAssay (NCATS)
Inconclusive results, whose numbers are uncertain, are shown with a selection of clear calls. For some of these results: Where the call is inconclusive, the potency comes from a doubtful curve fit. For some of these results: A note “side channel” means that the fit belongs to a control or component signal, not to the main read-out. Activity calls are given as the source filed them. Unless noted, calls follow the shape of the full dose curve.

Columns and labels:
[1] = target: Estrogen receptor (Homo sapiens) (UniProt P03372); assay: qHTS assay for small molecule antagonists of estrogen receptor alpha signaling (AID 588513; active = well fitted curve in the direction sought with a large enough effect in the signal ratio, with a control signal flat, not every such curve was filed as active; inconclusive = small, poorly fitted or top-dose-only effect, or effect the other way, or a change in a side signal; inactive = no such curve, though single readings can be large or run the other way; the % refers to the signal ratio; as to activity, negative = inhibition: % is scaled to controls: 0 for no effect and ±100 for the full control effect); conditions: ER-alpha-UAS-bla HEK293, beta-lactamase ratio, antagonist mode; activity, negative = inhibition: at 76.9 µM (top of the series) unless noted
Chain of UniProt P03372 (P03372 whole entry, looked up): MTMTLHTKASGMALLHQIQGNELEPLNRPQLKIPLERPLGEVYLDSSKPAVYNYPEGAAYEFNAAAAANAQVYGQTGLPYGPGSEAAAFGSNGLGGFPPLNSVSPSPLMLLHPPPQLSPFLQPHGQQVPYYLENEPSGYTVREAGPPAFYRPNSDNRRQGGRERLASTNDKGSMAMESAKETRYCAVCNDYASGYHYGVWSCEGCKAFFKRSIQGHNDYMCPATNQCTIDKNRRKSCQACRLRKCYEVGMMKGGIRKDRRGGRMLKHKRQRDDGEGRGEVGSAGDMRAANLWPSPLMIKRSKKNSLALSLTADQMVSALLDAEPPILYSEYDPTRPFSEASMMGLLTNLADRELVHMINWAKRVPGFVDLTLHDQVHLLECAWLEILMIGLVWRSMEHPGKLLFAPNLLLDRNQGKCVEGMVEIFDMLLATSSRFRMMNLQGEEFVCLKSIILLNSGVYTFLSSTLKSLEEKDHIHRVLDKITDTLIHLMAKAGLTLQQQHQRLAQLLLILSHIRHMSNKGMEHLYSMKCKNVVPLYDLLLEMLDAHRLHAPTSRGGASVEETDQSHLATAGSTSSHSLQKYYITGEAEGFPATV
Procedure, shortened: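 Beta-lactamase reporter, antagonist mode, HEK 293 GripTite cells; 0.5nM E2 stimulus, 18 h, 37 C; CCF4 dye 2 h RT; fluorescence. IC50 and efficacy from Hill fits, normalized to E2 and DMSO.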

[2] = target: Estrogen receptor (Homo sapiens) (UniProt P03372); assay: qHTS assay for small molecule agonists of estrogen receptor alpha signaling (AID 588514); conditions: ER-alpha-UAS-bla HEK293, beta-lactamase ratio, 18 h; activation: at 76.8 µM (top of the series), percent of full estradiol response, vehicle zero; also: nearly all actives have a fitted effect of over 70% in size;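 as to activation: 0% = vehicle only and 100% = reference agonist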
Procedure, shortened: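 Cells were plated at 5000/well, incubated 4 hrs at 37 C, dosed with compound titration series, incubated 18 hrs at 37 C, loaded with CCF4 dye for 2 hrs at RT, then fluorescence was read.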

[3] = target: Thyroid hormone receptor beta (Homo sapiens) (UniProt P10828); assay: qHTS assay for small molecule antagonists of thyroid hormone receptor beta signaling (AID 588547; active = well fitted inhibition curve with a large enough effect in the signal ratio, with a control signal flat, not every such curve was filed as active; inconclusive = small, poorly fitted or top-dose-only effect, or effect the other way, or a change in a side signal; the % refers to the signal ratio;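 as to activity change % (negative = inhibition): cells stimulated with 0.4 nM T3 agonist during compound exposure; % is scaled to controls: 0 for no effect and ±100 for the full control effect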); conditions: TR-UAS-bla HEK293, beta-lactamase ratio, antagonist mode, 18 h
Chain of UniProt P10828 (P10828 whole entry, looked up): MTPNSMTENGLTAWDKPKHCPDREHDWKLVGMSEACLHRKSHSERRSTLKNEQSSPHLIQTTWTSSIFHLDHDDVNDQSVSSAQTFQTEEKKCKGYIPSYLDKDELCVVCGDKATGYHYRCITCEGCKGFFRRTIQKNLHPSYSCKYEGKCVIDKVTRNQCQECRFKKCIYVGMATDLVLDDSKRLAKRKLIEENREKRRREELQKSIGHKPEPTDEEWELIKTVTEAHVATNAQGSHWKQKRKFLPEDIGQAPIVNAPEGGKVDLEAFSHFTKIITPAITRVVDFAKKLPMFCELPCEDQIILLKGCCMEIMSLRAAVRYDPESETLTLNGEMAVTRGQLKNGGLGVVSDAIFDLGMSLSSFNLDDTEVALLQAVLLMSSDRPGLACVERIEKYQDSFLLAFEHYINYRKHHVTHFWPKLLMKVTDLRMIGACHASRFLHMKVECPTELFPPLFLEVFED
Procedure, shortened: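 TR-UAS-bla GripTite HEK293 cells in 2% charcoal/dextran FBS medium were preincubated 4 h at 37 C, given compound (0.59 nM to 92 uM) plus 0.4 nM T3 (final) for 18 h, then CCF4 for 2 h at RT; Hill fit gave IC50.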

[4] = target: Peroxisome proliferator-activated receptor delta (Homo sapiens) (UniProt Q03181); assay: qHTS assay for small molecule antagonists of peroxisome proliferator-activated receptor delta signaling (AID 588535; active = well fitted inhibition curve with a large enough effect in the signal ratio, with a control signal flat, not every such curve was filed as active; inconclusive = small, poorly fitted or top-dose-only effect, or effect the other way, or a change in a side signal; inactive = no such curve, though single readings can be large or run the other way; the % refers to the signal ratio); conditions: HEK293T PPARd-UAS-bla, beta-lactamase FRET ratio, 18 h; activity change, negative = inhibition: at 76.7 µM (top of the series) unless noted
Chain of UniProt Q03181 (Q03181 whole entry, looked up): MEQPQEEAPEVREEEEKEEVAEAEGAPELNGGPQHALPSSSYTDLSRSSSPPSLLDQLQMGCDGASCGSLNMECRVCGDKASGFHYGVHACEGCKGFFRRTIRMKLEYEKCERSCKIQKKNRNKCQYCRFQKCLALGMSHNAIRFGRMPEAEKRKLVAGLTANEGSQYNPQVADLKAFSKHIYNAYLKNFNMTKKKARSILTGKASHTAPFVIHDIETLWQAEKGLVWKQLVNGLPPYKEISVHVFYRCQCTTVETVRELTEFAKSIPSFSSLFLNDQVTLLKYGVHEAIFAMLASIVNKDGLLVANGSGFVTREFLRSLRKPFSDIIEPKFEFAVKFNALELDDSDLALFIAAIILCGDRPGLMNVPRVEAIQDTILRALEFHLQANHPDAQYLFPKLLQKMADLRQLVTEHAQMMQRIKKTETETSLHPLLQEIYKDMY
Procedure, shortened: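 Reporter: UAS-bla under PPAR-delta response element, HEK293T host. Medium: 2% charcoal/dextran FBS. Dosing: titration, 18 hrs, 37 C. Detection: CCF4, 2 hrs RT, 405 ex/460 and 530 em.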

[5] = qHTS assay for small molecule agonists of the antioxidant response element (ARE) signaling pathway (AID 651741; active = well fitted activation curve with a large enough effect in the signal ratio; inconclusive = small, poorly fitted or top-dose-only effect, or effect the other way, or a change in a side signal; the % refers to the signal ratio); conditions: HepG2 ARE-bla reporter, beta-lactamase FRET ratio, 16 h; activation: at 96 µM (top of the series) unless noted
Procedure, shortened: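 Compounds in DMSO are pinned onto HepG2 ARE-bla cells (2,000/well) that were preincubated 5 h; plates stay 16 h at 37 C, then beta-lactamase activity is detected with LiveBLAzer B/G substrate by fluorescence.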

[6] = target: Glucocorticoid receptor (Homo sapiens) (UniProt P04150); assay: qHTS assay for small molecule antagonists of glucocorticoid receptor signaling (AID 588533; active = well fitted inhibition curve with a large enough effect in the signal ratio, with a control signal flat, not every such curve was filed as active; inconclusive = small, poorly fitted or top-dose-only effect, or effect the other way, or a change in a side signal; the % refers to the signal ratio;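 also: cells stimulated with 2 nM dexamethasone as agonist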; as to activity change, negative = inhibition: % is scaled to controls: 0 for no effect and ±100 for the full control effect); conditions: HeLa MMTV-bla, GRE beta-lactamase ratio, antagonist mode, 18 h; activity change, negative = inhibition: at 76.8 µM (top of the series) unless noted
[7] = target: Peroxisome proliferator-activated receptor delta (Homo sapiens) (UniProt Q03181); assay: qHTS assay for small molecule agonists of peroxisome proliferator-activated receptor delta signaling (AID 588534); conditions: HEK293T PPARdelta-UAS-bla, beta-lactamase ratio, 18 h; activation: at 76.7 µM (top of the series)
Procedure, shortened: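 Fluorescence from CCF4 substrate cleavage by beta-lactamase reporter, read 2 hrs at RT, measured agonist activity. Compounds were tested with 18 hrs exposure at 37 C. Concentration-response data fitted to Hill equation.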

[8] = target: Peroxisome proliferator-activated receptor gamma (Homo sapiens) (UniProt P37231); assay: qHTS assay for small molecule agonists of peroxisome proliferator-activated receptor gamma signaling (AID 588536; active = well fitted curve in the direction sought with a large enough effect in the signal ratio, with a control signal flat, not every such curve was filed as active; inconclusive = small, poorly fitted or top-dose-only effect, or effect the other way, or a change in a side signal; inactive = no such curve, though single readings can be large or run the other way; the % refers to the signal ratio;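 as to activation: 0% = DMSO basal wells and 100% = rosiglitazone at 2 µM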); conditions: HEK293 PPARg-UAS-bla, beta-lactamase ratio, 16 h; activation: at 76.7 µM (top of the series), percent of rosiglitazone response, DMSO as zero unless noted
Procedure, shortened: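 HEK293 UAS-bla reporter line, 1% charcoal/dextran FBS; titration, 16 h, 37 C; CCF4 loading 2 h RT; fluorescence 460/530 nm. Normalized to rosiglitazone 2 uM = 100%, DMSO = 0%.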

[9] = target: Peroxisome proliferator-activated receptor gamma (Homo sapiens) (UniProt P37231); assay: qHTS assay for small molecule antagonists of peroxisome proliferator-activated receptor gamma signaling (AID 588537; active = well fitted inhibition curve with a large enough effect in the signal ratio, with a control signal flat, not every such curve was filed as active; inconclusive = small, poorly fitted or top-dose-only effect, or effect the other way, or a change in a side signal; the % refers to the signal ratio;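 also: reporter cells co-stimulated with 50 nM rosiglitazone agonist during compound treatment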; as to activity, negative = inhibition: % of control where 0% means no effect); conditions: HEK293 PPARg-UAS-bla, beta-lactamase ratio, antagonist mode; activity, negative = inhibition: at 76.8 µM (top of the series)
Procedure, shortened: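 We seeded GeneBLAzer HEK293 reporter cells at 3000 per well, allowed 6-6.5 h attachment at 37 C, then co-treated with test compound titrations and 50 nM rosiglitazone overnight (16 h). Inhibition was quantified from 460/530 nm emission ratios.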

[10] = target: Retinoic acid receptor RXR-alpha (Homo sapiens) (UniProt P19793); assay: qHTS assay for small molecule agonists of retinoid X receptor alpha signaling (AID 588544); conditions: HEK293T RXRa-UAS-bla, beta-lactamase reporter, 18 h; activation: at 76.7 µM (top of the series) unless noted;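 as to activation: 0% = DMSO basal wells and 100% = reference agonist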
Chain of UniProt P19793 (P19793 whole entry, looked up): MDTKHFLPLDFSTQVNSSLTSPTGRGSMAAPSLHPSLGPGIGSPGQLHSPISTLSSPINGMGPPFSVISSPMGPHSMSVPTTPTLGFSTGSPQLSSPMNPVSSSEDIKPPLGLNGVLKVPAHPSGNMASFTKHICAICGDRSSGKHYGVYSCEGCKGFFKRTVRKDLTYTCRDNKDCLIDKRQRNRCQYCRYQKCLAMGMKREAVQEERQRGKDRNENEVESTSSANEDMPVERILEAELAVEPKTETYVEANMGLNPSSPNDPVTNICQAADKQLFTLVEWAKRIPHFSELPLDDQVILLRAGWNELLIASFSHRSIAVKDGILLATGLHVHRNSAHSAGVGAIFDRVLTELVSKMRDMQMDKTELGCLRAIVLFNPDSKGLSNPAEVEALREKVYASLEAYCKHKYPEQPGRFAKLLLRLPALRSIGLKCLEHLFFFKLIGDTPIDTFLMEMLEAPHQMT

[11] = target: Thyroid hormone receptor beta (Homo sapiens) (UniProt P10828); assay: qHTS assay for small molecule agonists of thyroid hormone receptor beta signaling (AID 588545); conditions: TR-UAS-bla GripTite HEK 293, beta-lactamase ratio, agonist mode, 18 h; activation: at 76.7 µM, percent of T3 response, DMSO as zero
Procedure, shortened: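 Agonist activity was read as beta-lactamase CCF4 fluorescence (405 ex, 460/530 em), scaled between DMSO (0%) and 10 nM T3 (100%), then Hill-fitted for EC50 and efficacy. HEK 293 TR-UAS-bla cells in 2% charcoal/dextran FBS medium were exposed 18 h at 37 C.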

[12] = target: Retinoic acid receptor RXR-alpha (Homo sapiens) (UniProt P19793); assay: qHTS assay for small molecule antagonists of retinoid X receptor alpha signaling (AID 588546; active = well fitted inhibition curve with a large enough effect in the signal ratio, with a control signal flat, not every such curve was filed as active; inconclusive = small, poorly fitted or top-dose-only effect, or effect the other way, or a change in a side signal; inactive = no such curve, though single readings can be large or run the other way; the % refers to the signal ratio); conditions: HEK293T RXRa-UAS-bla, beta-lactamase ratio, antagonist mode
Procedure, shortened: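 Beta-lactamase reporter inhibition, read as CCF4 fluorescence ratio (ex 405, em 460/530 nm) after 2 h at RT. HEK293T UAS-bla cells, 2500/well, were stimulated with 9-cis-RA at 500 or 100 nM final alongside test compound for 18 h at 37 C.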

[13] = qHTS assay for small molecule activators of the p53 signaling pathway (AID 651743; active = well fitted activation curve with a large enough effect in the signal ratio, not every such curve was filed as active; inconclusive = small, poorly fitted or top-dose-only effect, or a change in a side signal; the % refers to the signal ratio; as to activation: % of control where 0% means no effect); conditions: HCT-116 p53RE-bla, beta-lactamase FRET ratio, 16 h; activation: active compounds read high
Procedure, shortened: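 Cell-based beta-lactamase reporter (p53 response elements, HCT-116 background). After a 5-hour preincubation, cells received compound for 16 hours at 37 C; substrate development ran 2 hours at room temperature.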

[14] = target: Vitamin D3 receptor (Homo sapiens) (UniProt P11473); assay: qHTS assay for small molecule antagonists of vitamin D receptor signaling (AID 588541); conditions: HEK293T VDR-UAS-bla, beta-lactamase ratio, antagonist mode; activity change, negative = inhibition: at 76.7 µM (top of the series);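 as to activity change, negative = inhibition: receptor activated by calcitriol during compound treatment; % is scaled to controls: 0 for no effect and ±100 for the full control effect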
[15] = qHTS assay for small molecule activators of the nuclear factor-kappa B (NF-kB) signaling pathway (AID 651749; active = well fitted activation curve with a large enough effect in the signal ratio; inconclusive = small, poorly fitted or top-dose-only effect, or a change in a side signal; the % refers to the signal ratio; as to activation: % of control where 0% means no effect); conditions: NF-kB-bla ME-180 cells, beta-lactamase FRET ratio, 16 h; activation: active compounds read high
Procedure, shortened: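 Screening used 2,000 ME-180 reporter cells per well exposed to pinned compound (23 nL) or DMSO; after 16 hr at 37C, beta-lactamase expression under NF-kB control was assessed through FRET.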

[16] = qHTS assay for small molecule agonists of the antioxidant response element (ARE) signaling pathway measured by Nrf2-dependant transcriptional activity (AID 720636; active = well fitted curve in the direction sought with a large enough effect in the repeat runs; inconclusive = weak or mixed curves; inactive = no such curve, though single readings can be large; an effect the other way counts as inactive or inconclusive)
Procedure, shortened: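 ARE-luc HepG2 cells carrying an Nrf2-responsive luciferase reporter, in medium with 1% dialyzed FBS, exposed to compound for 16 hr at 37 C, 5% CO2. Luminescence read 30 min after ONE-Glo addition.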

[17] = target: Vitamin D3 receptor (Homo sapiens) (UniProt P11473); assay: qHTS assay for small molecule agonists of vitamin D receptor signaling (AID 588543); conditions: HEK293T VDR-UAS-bla, beta-lactamase ratio, 16 h; activation: at 76.8 µM (top of the series);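 as to activation: 0% = DMSO basal and 100% = reference agonist control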
Procedure, shortened: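 β-lactamase reporter, VDR-UAS-bla HEK293T, agonist mode. Cells plated 5 h at 37 °C, compound titration 16 h at 37 °C, CCF4 dye 2 h RT, ratio 460/530 nm. Hill fit → EC50, efficacy vs 50 nM 1α,25-(OH)2D3.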

[18] = qHTS assay for small molecule agonists of the antioxidant response element (ARE) signaling pathway measured by Nrf2-dependant transcriptional activity - cell viability counter screen (AID 720653; active = well fitted curve in the direction sought with a large enough effect in the repeat runs; inconclusive = weak or mixed curves; inactive = no such curve, though single readings can be large; an effect the other way counts as inactive or inconclusive); conditions: ARE-bla HepG2 viability, CellTiter-Glo ATP luminescence, 16 h; max response: active compounds read low
Procedure, shortened: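 ARE-bla HepG2 cells (2,000/well) rested 5 hrs at 37C/5% CO2, then exposed to compounds in DMSO for 16 hrs. Viability was read in the same wells as intracellular ATP by luminescence, 30 min at room temperature after reagent addition.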

[19] = qHTS assay for cell viability of the p53RE-bla HCT-116 cell line (AID 743292; active = well fitted curve in the direction sought with a large enough effect; inconclusive = small, poorly fitted or top-dose-only effect, or another doubt; inactive = no such curve, though single readings can be large; an effect the other way counts as inactive or inconclusive; also: nearly all actives have a fitted effect of over 55% in size)
Procedure, shortened: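 CellSensor p53RE-bla HCT-116 cells (4,000/well) pre-incubated 5 h at 37 C, then exposed to compounds in DMSO for 16 h at 37 C. Viability read as ATP content by CellTiter-Glo luminescence after 30 min at room temperature.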

[20] = qHTS assay for cell viability of HEK293 cells (AID 743288; active = well fitted curve in the direction sought with a large enough effect; inconclusive = small, poorly fitted or top-dose-only effect, or another doubt; inactive = no such curve, though single readings can be large; an effect the other way counts as inactive or inconclusive; also: nearly all actives have a fitted effect of over 50% in size); conditions: ATP luminescence (CellTiter-Glo), 18 h; max response: active compounds read low
Procedure, shortened: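 Environmental chemicals tested in qHTS format against parental HEK293 cells; 18 h treatment, 37 C; read-out ATP luminescence (CellTiter-Glo), 30 min RT development.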
Potency is read from the fitted curve at half-maximal effect; tags tell the direction and shape of the fitted curve or compound fluorescence and quenching.

C/C(=N\NC(=O)Nc1cc(F)cc(F)c1)c1ncccc1C(=O)O
inconclusive: activity, negative = inhibition [1] -51.5% | activation [2] 32.4% | Potency [3] 1.78 µM [side channel, falling, full curve, poor fit]

Cc1cc(C)nc(Nc2ccccc2)n1
inactive: Potency [4]
inconclusive: activity, negative = inhibition [1] -27.1% | activation [2] 57.2% | Potency [5] 61.1 µM [activator, single point]

CO/N=C(/C1=NOCCO1)c1ccccc1Oc1ncnc(Oc2ccccc2Cl)c1F
active: Potency [9] 25.1 µM
inconclusive: Potency [1] 5.62 µM [side channel, rising, partial curve, poor fit] | activation [2] -51.1% | activity change, negative = inhibition [6] -38.3% | Potency [7] 35.5 µM [side channel, rising, single point] | activity change, negative = inhibition [4] -74.6% | Potency [8] 50.1 µM [cytotoxic, side channel, single point] | activation [10] -14.4% | Potency [11] 28.2 µM [side channel, rising, partial curve, poor fit] | Potency [12] 50.1 µM [inhibitor, single point] | Potency [3] 31.6 µM [fluorescent, side channel, partial curve] | Potency [13] 28.2 µM [side channel, falling, partial curve]

O=[N+]([O-])c1ccc(Nc2ccccc2)cc1
active: Potency [5] 48.6 µM
inconclusive: activity, negative = inhibition [1] -19.9% | Potency [2] 39.8 µM [side channel, rising, partial curve, poor fit] | activation [8] -17.4% | Potency [9] 44.7 µM [side channel, rising, single point] | activity change, negative = inhibition [14] -21.3% | activation [10] -45.5% | Potency [16] 43.3 µM [activator, partial curve, poor fit]
inactive: Potency [6] | activity change % (negative = inhibition) [3] -15.7% | activation [15] 0.166%

Fc1ccc(Oc2ccnc3cc(Cl)cc(Cl)c23)cc1
inconclusive: activity, negative = inhibition [1] -153% | Potency [2] 0.794 µM [side channel, rising, full curve, poor fit] | Potency [7] 7.08 µM [side channel, rising, full curve, poor fit] | Potency [4] 39.8 µM [fluorescent, side channel, partial curve] | Potency [8] 7.08 µM [activator, full curve] | activity, negative = inhibition [9] -59.6% | activity change, negative = inhibition [14] -20% | Potency [17] 10 µM [side channel, rising, full curve] | Potency [10] 14.1 µM [falling, partial curve, poor fit] | activity change % (negative = inhibition) [3] -70.9% | activation [13] 26.8%
active: Potency [12] 39.8 µM

CCC(C)c1cc([N+](=O)[O-])cc([N+](=O)[O-])c1O (configuration not stated)
inactive: Potency [4] | Potency [19]
inconclusive: Potency [1] 35.5 µM [side channel, rising, partial curve, poor fit] | activation [2] -24.3% | Potency [6] 35.5 µM [inhibitor, partial curve, poor fit] | Potency [7] 10 µM [fluorescent, side channel, full curve] | Potency [9] 15.8 µM [side channel, rising, full curve] | Potency [17] 10 µM [side channel, rising, full curve, poor fit] | activation [10] 5.56% | Potency [18] 39.8 µM [cytotoxic, partial curve, poor fit]
active: Potency [5] 2.73 µM

CCC[CH2][Sn]([CH2]CCC)([CH2]CCC)[O]C(=O)c1ccccc1
active: Potency [18] 3.98 µM | Potency [20] 7.08 µM | Potency [19] 6.31 µM
inconclusive: Potency [1] 39.8 µM [cytotoxic, side channel, partial curve, poor fit] | activation [2] -29.2% | activation [8] 34.6% | Potency [9] 12.6 µM [cytotoxic, side channel, full curve, poor fit] | Potency [14] 22.4 µM [side channel, falling, full curve, poor fit] | activation [17] 52.2% | activation [10] 2.22% | Potency [12] 17.8 µM [cytotoxic, side channel, full curve, poor fit] | Potency [5] 9.69 µM [cytotoxic, side channel, full curve] | Potency [13] 6.31 µM [cytotoxic, side channel, full curve, poor fit] | Potency [15] 12.6 µM [cytotoxic, side channel, full curve]
